PubChem BioAssay AID504466 (National Center for Advancing Translational Sciences (NCATS), 2011)
Screen size: about 330,000 compounds; about 4,200 (1.3%) were called active. This list was built around the results that the source calls inconclusive (neither active nor inactive); the mix of calls is not that of the screen. The call rests on the fitted dose curve; in most records, active means well fitted activation curve with a large enough effect; inconclusive means small, poorly fitted or top-dose-only effect; inactive means no such curve, though single readings can be large or run the other way. Potencies beside an inconclusive call are fits to weak or partial responses and may not hold up.

Assay: qHTS screen for small molecules that induce genotoxicity in human embryonic kidney (HEK293T) cells expressing luciferase-tagged ELG1; further: nearly all actives have a fitted effect of over 60% in size; on activity change, positive = activation: % of control where 0% means no effect
Conditions: HEK293T ELG1-luciferase reporter, luminescence, 16 h; series mostly up to 46 µM; activity change, positive = activation: at the top concentration
How it was run: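 After overnight (16 hr) compound treatment at 37 °C, ELG1-luciferase HEK293T cells were lysed with ONE-Glo; luminescence quantified 30 min later at room temperature.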
Potency means the concentration at half of the fitted maximal effect; tags describe the fitted curve by direction and shape.

SMILES	activity change, positive = activation	Potency
CCCCCCCCCC[n+]1cccc2c3ccccc3ccc21	inactive: -5.98%	
Cc1cc(C)c(NC(=O)c2ccc(CN3CCc4ccccc4C3)cc2)c(C)c1	inactive: -5.61%	
COc1ccc(C(=O)N[C@H](C(=O)NCCCSc2ccccc2)C(C)C)cc1	inactive: -8.23%	
CCN(CC)c1ccc(/C=N/Nc2nn[nH]n2)cc1	inactive: 5.56%	
c1ccc(CSc2nc3ncccn3n2)cc1		inconclusive: 18.3 µM [activator, single point]
CCCc1ccc2oc(C(=O)N(C)Cc3ccn[nH]3)c(C)c2c1		active: 18.3 µM
CC1=CC(=O)c2c(O)ccc(O)c2C1=O	inactive: -2.27%	
COCCNc1oc(-c2ccc(C)cc2)nc1C#N		active: 5.62 µM
O=C(CNC(=O)c1ccccc1)N/N=C/c1cc(Br)ccc1O		inconclusive: 29.1 µM [activator, partial curve, poor fit]
CC1CCc2c(sc(NC(=O)C3CCCO3)c2C#N)C1 (centres undefined)		inconclusive: 4.11 µM [activator, full curve]
CCOC(=O)C1CCCN(C(=O)c2cc(-c3ccc(C)cc3)on2)C1 (centres undefined)		inconclusive: 2.59 µM [activator, full curve, poor fit]
Cc1nc(NC(=O)CSc2ccccc2N)sc1C		inconclusive: 9.2 µM [activator, partial curve, poor fit]
CCCc1ccc2oc(C(=O)N3CCC(O)CC3)c(C)c2c1		inconclusive: 13 µM [activator, partial curve, poor fit]
O=C(Nc1ccc(Cl)cn1)c1ccc2c(Cl)c3c(nc2c1)CCC3		inconclusive: 1.3 µM [activator, full curve]
O=C(N/N=C/c1cccc(C(F)(F)F)c1)c1ccc(O)cc1	inactive: 6.52%	
CC1(C)SC2c3ccccc3C(=O)N2[C@@H]1C(=O)NC1CC1 (some centres undefined)	inactive: 0.211%	
COCCNC(=O)Cn1ccc2cc(S(=O)(=O)N3CCCCC3)ccc21	inactive: -0.698%	
c1ccc(CSc2nnc(-c3ccco3)n2Cc2ccccc2)cc1		inconclusive: 7.31 µM [activator, partial curve, poor fit]
Cc1cccc(NC(=S)NNC(=O)c2csc(C(C)C)c2)c1	inactive: 12.7%	
CC(C)(C)n1cnc2cc(NC(=O)c3ccccc3)ccc21		active: 5.17 µM
Cn1c(SCc2cccc(F)c2)nnc1-c1ccccn1		inconclusive: 29.1 µM [activator, partial curve, poor fit]
CN(C)/C(=N\S(=O)(=O)c1ccc(Br)cc1)c1ccccc1	inactive: 1.42%	
O=C(c1ccc(COc2ccc(F)cc2)o1)n1cccn1	inactive: 1.57%	
Cc1nnc2ccc(-c3ccc(NC(=O)Cc4cccs4)cc3)nn12		inconclusive: 20.6 µM [activator, single point]
